Data taken from publication PMC4336329 (PLoS ONE, 2015).
About 2,200 (0.71%) of roughly 310,000 compounds showed an effect of 50% or more. The effect is printed as a negative number. This is one part of the list.

Target: human ether-à-go-go-related gene (hERG) potassium channel (human, UniProt Q12809)
Assay: primary screen, population patch clamp on CHO cells stably expressing hERG

Chain of human ether-à-go-go-related gene (hERG) potassium channel (Q12809 whole entry, looked up): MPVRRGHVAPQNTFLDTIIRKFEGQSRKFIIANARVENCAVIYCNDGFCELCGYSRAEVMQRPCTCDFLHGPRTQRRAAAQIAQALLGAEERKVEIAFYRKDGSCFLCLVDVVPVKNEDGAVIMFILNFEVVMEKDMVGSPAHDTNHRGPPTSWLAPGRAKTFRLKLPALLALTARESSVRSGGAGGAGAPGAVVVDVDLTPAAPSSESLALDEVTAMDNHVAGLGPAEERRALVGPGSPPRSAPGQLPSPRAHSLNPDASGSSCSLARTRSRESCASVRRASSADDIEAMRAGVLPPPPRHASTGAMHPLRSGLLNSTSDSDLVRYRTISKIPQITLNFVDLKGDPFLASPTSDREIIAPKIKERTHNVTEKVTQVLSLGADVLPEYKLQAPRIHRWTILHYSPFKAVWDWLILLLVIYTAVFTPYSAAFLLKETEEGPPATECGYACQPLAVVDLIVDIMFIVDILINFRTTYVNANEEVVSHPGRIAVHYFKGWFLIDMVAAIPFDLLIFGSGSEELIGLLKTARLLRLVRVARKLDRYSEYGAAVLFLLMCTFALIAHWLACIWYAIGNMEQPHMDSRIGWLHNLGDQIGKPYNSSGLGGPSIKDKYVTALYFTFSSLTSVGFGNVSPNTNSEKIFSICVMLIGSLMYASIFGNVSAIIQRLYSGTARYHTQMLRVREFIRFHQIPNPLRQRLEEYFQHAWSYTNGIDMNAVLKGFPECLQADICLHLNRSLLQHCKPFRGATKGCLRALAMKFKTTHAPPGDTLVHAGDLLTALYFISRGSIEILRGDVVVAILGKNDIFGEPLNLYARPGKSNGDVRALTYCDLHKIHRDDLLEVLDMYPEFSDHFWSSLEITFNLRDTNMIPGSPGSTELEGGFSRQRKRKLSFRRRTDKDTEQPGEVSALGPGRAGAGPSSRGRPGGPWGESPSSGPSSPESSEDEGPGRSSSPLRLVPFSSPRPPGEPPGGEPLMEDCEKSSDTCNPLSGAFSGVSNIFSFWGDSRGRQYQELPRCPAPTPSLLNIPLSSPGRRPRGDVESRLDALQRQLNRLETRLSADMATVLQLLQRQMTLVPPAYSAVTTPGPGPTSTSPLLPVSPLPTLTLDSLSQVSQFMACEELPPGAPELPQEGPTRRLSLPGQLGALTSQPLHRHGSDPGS

SMILES | hERG current change (%, negative = inhibition) at 1uM [%]
CN(CC(=O)Nc1ccc(F)cc1)C(=O)COC(=O)c1cc(S(=O)(=O)N(C)C)ccc1N1CCCC1 | 11.8
Cc1cccc2[nH]c3c(=O)n(CCN4CCNCC4)cnc3c12 | 6.01
N#CC(c1ccc(F)cc1)c1ccc(C(=O)c2ccc(F)cc2)cc1 (stereo not drawn) | 12.1
Cc1ccc(C(=O)N2CCCC(CCC(=O)NCc3ccccc3F)C2)cn1 (stereo not drawn) | 7.57
O=C(C(=O)N1CCN(c2ccccc2)CC1)c1c[nH]c2ccccc12 | 7.38
COc1cc(NC(=O)Cc2ccccc2)ccc1NC(=O)c1ccco1 | 12.4
COc1ccc(-c2noc(Cn3cc(S(=O)(=O)N4CCCC4)ccc3=O)n2)cc1 | 0.255
COc1ccc(OC)c(CCNC(=O)CCCc2nnc3n(C)c(=O)c4sccc4n23)c1 | 8.24
CCc1nnc(NC(=O)CSc2nc3cc(OC)c(OC)cc3cc2C)s1 | 6.22
COc1cc2c(cc1OC)C(c1cc([N+](=O)[O-])ccc1O)NCC2 (stereo not drawn) | 17.8
COCCNC(=S)N(CCc1c(C)[nH]c2ccc(C)cc12)Cc1cc(OC)c(OC)c(OC)c1 | 5.11
O=C(NCc1cccs1)C1CC1 | 10.1
COc1ccc(C)cc1S(=O)(=O)N(C)CC(=O)N1CCCC1 | 13.4
COc1ccccc1CNC(=O)CCS(=O)(=O)c1ccc2c(c1)CC(C)N2C(=O)C1CC1 (stereo not drawn) | 12.4
COc1ccc(C2C(C#N)=C(N)OC3=C2C(=O)CCC3)c(OC)c1OC (stereo not drawn) | 1.32
O=C(c1ccco1)N1CCN(S(=O)(=O)Cc2ccccc2Cl)CC1 | 0.503
COc1ccc(Cc2nnc(SCC(=O)c3ccccc3)o2)cc1 | 6.46
O=C(NCCCN1CCCC1=O)Nc1ccc(Br)cc1Cl | 2.47
CCN(C(=O)COC(=O)C1=COCCO1)c1ccccc1 | 10.4
Cc1cccc(OCC(=O)NCCCNC(=O)c2ccc(C)nc2)c1 | 18
Cl.Fc1ccccc1COc1ccccc1CNCc1ccncc1 | 0.737
COc1ccc(CNC(=O)C(=O)NC2CCC(C)CC2)cc1 (stereo not drawn) | 10.8
CC(=O)NCCNC(=O)c1ccc(-n2c(C)ccc2C)cc1 | 10.7

SMILES | hERG current change (%, negative = inhibition) at 1uM [%]
CNC(=O)CSc1nnnn1CCCOC | 2.02
CC1Cc2ccccc2N1C(=S)NC(=O)c1cccc(Br)c1 (stereo not drawn) | 7.01
CC(C)(C)c1ccc(S(=O)(=O)N2CCN(CC(=O)N3CC(=O)Nc4ccccc43)CC2)cc1 | 7.09
COc1ccc(C(=O)NCCc2ccc(F)cc2)cc1OC | 12.6
C[C@H](NC(=O)c1nc[nH]c1C(=O)N[C@@H](C)C(=O)OCc1ccccc1)C(=O)OCc1ccccc1 | 0.675
COc1ccc(N2CCN(C(=O)Cc3ncc(C(F)(F)F)cc3Cl)CC2)cc1 | -10.4
CC1(C)Oc2ccc(C(=O)NC3CCCC3)cc2N(CC(=O)NC2CCCC2)C1=O | -6.77
CC(Oc1ccccc1)c1ccnn1S(=O)(=O)c1ccccc1 (stereo not drawn) | 18.7
COc1ccccc1-c1nnc(SCC(=O)Nc2ccc3[nH]c(=O)[nH]c3c2)n1N | 12.6
CCCS(=O)(=O)N1CCCC(C(=O)c2cccc(Cl)c2)C1 (stereo not drawn) | 3.86
CC(C)(C)NC(=O)CSc1nc2scc(-c3ccccc3)c2c(=O)[nH]1 | 14.3
COc1ccccc1N1CCN(C(=O)COc2ccc(Cl)cc2Br)CC1 | 1.07
Cc1ccsc1/C=C1/NC(=O)N(Cc2ccc(F)cc2)C1=O | 6.45
O=C(CCCOc1ccc(Cl)cc1Cl)NNC(=O)C1CCC1 | 11.3
COc1cccc(C(=O)C2CCCN(Cc3c(C)n(C)n(-c4ccccc4)c3=O)C2)c1 (stereo not drawn) | 8.32
O=C(CSc1n[nH]c(-c2cccs2)n1)NCCc1ccccc1 | -0.0149
S=C([S-])N1CCCC1.[NH4+] | 17.4
CCCc1cc(=O)n2[nH]c(NCc3ccc(Cl)cc3Cl)nc2n1 | 7.27
O=C(CSc1nncs1)NCc1ccc2c(c1)OCO2 | 12.7
Cc1ccc(N(C(=O)c2ccc(Br)o2)C2C=CS(=O)(=O)C2)cc1 (stereo not drawn) | 7.95
COC(=O)C1CCN(C(=O)COC(=O)c2oc3ccc(OC)cc3c2C)CC1 | 6.1
C#CC1(O)C=CC2C3CCC4=CC(=O)CCC4C3CCC21CC (stereo not drawn) | -7.58
Cc1cccc(C)c1-n1nnnc1S(=O)(=O)Cc1ccccc1Cl | 6.1

SMILES | hERG current change (%, negative = inhibition) at 1uM [%]
COc1ccccc1C1=NN(C(=S)Nc2ccccc2)C(c2ccco2)C1 (stereo not drawn) | 13
CN(C)C(=O)CSc1nnc([C@H](Cc2ccccc2)NC(=O)OC(C)(C)C)o1 | 10.2
COc1cccc(NC(=O)COC(=O)CCS(=O)(=O)c2ccc(C)cc2)c1 | 12.1
COc1ccc(Nc2nc(C)c(-c3ccccc3)s2)cc1 | 2.24
CCC(C)(C)NC(=O)C(c1cccc(OC)c1OC)N(C(=O)CCC(=O)Nc1cc(C)on1)C(C)C (stereo not drawn) | 13.1
O=C(O)c1ccc2c(c1)S(=O)(=O)N=C1CCCCCN12 | 15.6
ONC(=Nc1ccccc1Cl)c1c(F)cccc1F | 10.5
COc1ccc(-c2[nH]ncc2CN2CCN(C(=O)c3cccs3)CC2)c(F)c1 | 3.62
Nc1[nH]ncc1N=Nc1ccc(Cl)cc1 | 16.1
C=CCn1c(SCc2ccccc2C#N)nnc1-c1cc(Br)ccc1O | 8.74
COc1ccccc1-c1nc(C#N)c(N2CCCCCC2)o1 | 5.38
COc1ccc(CCCC(=O)NCCc2ccccc2)c(C)c1 | 15.3
Cn1c(SCC(=O)Nc2ccc(Cl)cc2F)nnc1-c1ccco1 | -0.388
CN(C)C(CNC(=O)c1cccc(OC(F)F)c1)c1ccco1 (stereo not drawn) | 6.93
O=C(/C=C/c1cccc([N+](=O)[O-])c1)NCc1ccccc1 | 5.81
COc1ccc(CNn2c(-c3cccc(C)c3)nc3ccccc3c2=O)cc1OC | -54.8
Cc1cc(C)cc(N(C(=O)c2ccc3c(c2)OCO3)C2C=CS(=O)(=O)C2)c1 (stereo not drawn) | 8.67
CCOC(=O)Nc1ccc([N+](=O)[O-])cc1OC | 11.7
COc1ccc(Cl)cc1NC(=O)[C@@H]1CCCN1C(=O)c1cccs1 | 11.2
Cc1nnc(NS(=O)(=O)c2ccc(Br)cc2)s1 | 18.1
COc1ccc(NS(=O)(=O)c2ccc(N3CCOCC3)c(NC(=O)c3ccc(OC)cc3)c2)cc1 | 5.83
CC(C)c1ccc(/C=C(\c2nc3ccccc3[nH]2)S(=O)(=O)c2ccccc2)cc1 | 15.3
Cl.OC(COc1ccc(Cl)cc1Cl)CN1CCc2ccccc2C1 (stereo not drawn) | 3.76

SMILES | hERG current change (%, negative = inhibition) at 1uM [%]
CN1CCN(C(=O)C2CCC(C)(C(=O)O)C2(C)C)CC1 (stereo not drawn) | 6.21
COc1ccccc1N1CCN(c2cc(C)nc3nc(C)nn23)CC1 | -32.6
O=c1cc[nH]c2cc(C(F)(F)F)ccc12 | 19.7
CC(C)CNC(=O)c1cccc(NC(=O)c2ccccc2-c2ccccc2C(=O)O)c1 | 3.39
Cc1cccc(CC(Cc2nc3ccccc3[nH]2)c2nc3ccccc3[nH]2)c1 (stereo not drawn) | 10.5
CN1CCN(Cc2nc3ccccc3n2C)CC1CCO (stereo not drawn) | 10.4
COc1ccccc1CNC(=O)C/C(C)=N/NC(=O)Cc1ccc(Cl)cc1 | 7.97
CCCCCC(=O)Nc1cccc(C2=NOC3(C2)C[C@H](C(N)=O)N(C(=O)CC)C3)c1 (stereo partly drawn) | 7.78
CSc1ccccc1NC(=O)c1cc2ncc(Br)cn2n1 | 5.29
CC1(c2ccccc2)NCCN2C(=O)CSC21.Cl (stereo not drawn) | 14.2
CCC1CCCCN1C(=O)Cn1c(=O)n(CCCC(=O)NCc2ccco2)c(=O)c2sccc21 (stereo not drawn) | 13.3
O=C(NCCSc1ncc(-c2ccc(F)cc2)[nH]1)c1ccc2c(c1)OCO2 | 3.92
COc1ccc(-c2nnc(SCC(=O)NC3CCCc4ccccc43)n2N)cc1 (stereo not drawn) | 2.39
CNC(=O)C(=O)NCC1OCCN1S(=O)(=O)c1ccc2c(c1)OCCO2 (stereo not drawn) | 14.7
COc1cnc(SCc2ccc(Cl)c(Cl)c2)nc1Cl | -5.73
CCOC(=O)c1ccc(NC(=O)Cn2nnc(-c3ccc(C)cc3)n2)cc1 | 4.07
CCOc1nc(NCCO)nc(Nc2ccc([N+](=O)[O-])cc2)n1 | 5.3
COc1ccc(S(=O)(=O)N2CCOC2CNC(=O)C(=O)NCCc2ccccc2)cc1OC (stereo not drawn) | 9.48
COc1ccccc1N1CCN(C(=O)Cn2c(=O)[nH]c3ccsc3c2=O)CC1 | 8.27
O=C1OCCC1Sc1nc2ccccc2[nH]1 (stereo not drawn) | 12.3
Cc1cccc(NC(=S)NC23CN4CN(CN(C4)C2)C3)c1C | 2.71
